Reference: publication PMC4336329 (PLoS ONE, 2015)
In all, about 310,000 compounds went through this assay and about 14,000 (4.5%) showed an effect of 50% or more. Effects have a minus sign here. The list shows a part of the results.
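Also: peak tail current of the secondary pulse compared with the same well before compound.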

The compounds below were run against human ether-à-go-go-related gene (hERG) potassium channel (human, UniProt Q12809) (assay: primary screen, population patch clamp on CHO cells stably expressing hERG).
human ether-à-go-go-related gene (hERG) potassium channel, sequence (Q12809 whole entry, looked up): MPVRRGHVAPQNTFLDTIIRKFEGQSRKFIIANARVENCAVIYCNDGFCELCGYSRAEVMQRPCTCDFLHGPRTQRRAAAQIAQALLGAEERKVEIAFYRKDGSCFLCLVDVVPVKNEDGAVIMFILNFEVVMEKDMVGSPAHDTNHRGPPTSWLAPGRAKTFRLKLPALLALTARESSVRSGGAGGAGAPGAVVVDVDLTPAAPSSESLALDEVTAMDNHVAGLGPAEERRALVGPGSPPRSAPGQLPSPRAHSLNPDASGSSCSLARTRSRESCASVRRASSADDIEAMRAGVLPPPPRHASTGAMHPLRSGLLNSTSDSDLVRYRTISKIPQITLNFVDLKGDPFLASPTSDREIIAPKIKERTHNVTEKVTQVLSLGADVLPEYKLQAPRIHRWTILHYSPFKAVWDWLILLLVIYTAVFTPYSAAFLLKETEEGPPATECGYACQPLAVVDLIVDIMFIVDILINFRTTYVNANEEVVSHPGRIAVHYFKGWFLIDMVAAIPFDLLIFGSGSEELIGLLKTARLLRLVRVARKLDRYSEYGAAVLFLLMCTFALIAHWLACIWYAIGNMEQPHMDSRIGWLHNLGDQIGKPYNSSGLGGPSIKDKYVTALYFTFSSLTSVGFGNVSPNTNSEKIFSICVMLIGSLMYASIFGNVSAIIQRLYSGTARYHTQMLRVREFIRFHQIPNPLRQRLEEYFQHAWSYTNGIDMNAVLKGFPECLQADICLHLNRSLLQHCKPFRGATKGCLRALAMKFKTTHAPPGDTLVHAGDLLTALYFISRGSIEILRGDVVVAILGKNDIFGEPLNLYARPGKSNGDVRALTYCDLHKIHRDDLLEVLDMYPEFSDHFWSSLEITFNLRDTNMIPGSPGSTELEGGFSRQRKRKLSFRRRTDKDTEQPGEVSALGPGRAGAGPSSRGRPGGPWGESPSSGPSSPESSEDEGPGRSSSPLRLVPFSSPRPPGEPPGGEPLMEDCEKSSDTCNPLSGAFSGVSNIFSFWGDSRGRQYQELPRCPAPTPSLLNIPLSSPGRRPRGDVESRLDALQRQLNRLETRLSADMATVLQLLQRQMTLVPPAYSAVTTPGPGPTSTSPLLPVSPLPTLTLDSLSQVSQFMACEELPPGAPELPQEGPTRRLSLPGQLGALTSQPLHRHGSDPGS
In the case of CCOC(=O)c1nn(-c2ccccc2F)c2nc(-c3ccco3)c(C#N)c(=O)n12, the “hERG current change (%, negative = inhibition) at 10uM” value is reported as 9.1%.
In the case of CCn1cc(S(=O)(=O)NCCc2ccc(OC)c(OC)c2)cn1, the “hERG current change (%, negative = inhibition) at 10uM” value is reported as -49.5%.
NS(=O)(=O)c1cccc(NC(=O)Cn2cc(C(F)(F)F)cc(Cl)c2=O)c1 was tested, and the “hERG current change (%, negative = inhibition) at 10uM” value was 7.23%.
In the case of CCOc1c(C)cc(-c2ncccc2O)cc1C.Cl, the “hERG current change (%, negative = inhibition) at 10uM” value is reported as -5.17%.
CC1CCN(C(=O)Cn2c(=O)n(-c3ccc(F)cc3)c(=O)c3sccc32)CC1 was tested, and the “hERG current change (%, negative = inhibition) at 10uM” value was 5.04%.
With Cc1cccc(N(C(=O)Cn2nnc3ccccc32)C(C(=O)NC(C)(C)C)c2ccsc2)c1 (centres unmarked) the “hERG current change (%, negative = inhibition) at 10uM” value was 13.4%.
For Nc1ccccc1SCc1ccccc1, the “hERG current change (%, negative = inhibition) at 10uM” value was -2.24%.
With CCN(CC)C(=S)SCC(=O)NC12CC3CC(CC(C3)C1)C2 the “hERG current change (%, negative = inhibition) at 10uM” value was -11.6%.
In the case of O=C1C(=O)N(C/C=C/c2ccccc2)c2ccccc21, the “hERG current change (%, negative = inhibition) at 10uM” value is reported as 14.8%.
In the case of COc1ccc(-n2nnnc2/C=C\Nc2ccc(C)cc2)cc1, the “hERG current change (%, negative = inhibition) at 10uM” value is reported as 16%.
Cc1nn(-c2ccccc2)c2[nH]c(=O)c(CNc3ccc(N4CCOCC4)cc3)cc12 was tested, and the “hERG current change (%, negative = inhibition) at 10uM” value was -2.31%.
COc1ccc(NC(=O)C2=NN(c3ccccc3)C(=O)CC2)cn1 was tested, and the “hERG current change (%, negative = inhibition) at 10uM” value was -20.6%.
With O=C(O)C1CCCN1C(=O)c1cncc(Br)c1 (centres unmarked) the “hERG current change (%, negative = inhibition) at 10uM” value was -0.387%.
In the case of COc1cc2ccnc(Cc3cccc(OC)c3OC)c2cc1OC.Cl, the “hERG current change (%, negative = inhibition) at 10uM” value is reported as -15%.
With COc1ccccc1C(=O)NCC(=O)NCCSc1ccc(Br)cc1 the “hERG current change (%, negative = inhibition) at 10uM” value was -1.68%.
For CCCc1cc(=O)[nH]c(SCC(=O)N(C)CC(=O)Nc2ccc(F)cc2)n1, the “hERG current change (%, negative = inhibition) at 10uM” value was 26%.
With O=C(CCCc1nc(-c2ccccc2)no1)NCc1cccnc1 the “hERG current change (%, negative = inhibition) at 10uM” value was -18.9%.
With CCCCc1cc(=O)oc2cc(OCC(=O)N3CCc4ccccc43)ccc12 the “hERG current change (%, negative = inhibition) at 10uM” value was 6.81%.
With Br.N#CCC(=O)NN1Cc2ccccc2C1=N the “hERG current change (%, negative = inhibition) at 10uM” value was 4.63%.
In the case of CCOC(=O)C1=C(O)/C(=C\c2ccc(O)c(OCC)c2)N=C1C, the “hERG current change (%, negative = inhibition) at 10uM” value is reported as 8.17%.
Cc1ccc(NC(=O)/C(=C\c2cccc([N+](=O)[O-])c2)NC(=O)c2cccs2)cc1 was tested, and the “hERG current change (%, negative = inhibition) at 10uM” value was -1.85%.
With COc1cc2c(cc1NC(=O)CCC(=O)O)oc1ccccc12 the “hERG current change (%, negative = inhibition) at 10uM” value was 18.5%.
For COc1cc(/C=C2/S/C(=N/S(=O)(=O)c3ccccc3)NC2=O)c([N+](=O)[O-])cc1OC, the “hERG current change (%, negative = inhibition) at 10uM” value was 15.7%.
In the case of COc1ccc(C(=O)N(CC2CCCO2)C(C(=O)NC2CCCC2)c2ccc(Cl)cc2)cc1OC (centres unmarked), the “hERG current change (%, negative = inhibition) at 10uM” value is reported as -21.8%.
In the case of CCC(=O)NC(=S)Nc1ccc(Cl)cn1, the “hERG current change (%, negative = inhibition) at 10uM” value is reported as 14.8%.
With CC(C)(C)c1ccc(C(=O)Nc2ccc(S(N)(=O)=O)cc2)cc1 the “hERG current change (%, negative = inhibition) at 10uM” value was 8.19%.
In the case of COc1ccc(CNCCc2ccc(Cl)cc2Cl)cc1, the “hERG current change (%, negative = inhibition) at 10uM” value is reported as -22.2%.
In the case of C/C(Cn1cnc([N+](=O)[O-])n1)=N/NC(=O)COc1c(Cl)cc(Cl)cc1Cl, the “hERG current change (%, negative = inhibition) at 10uM” value is reported as -31.4%.
In the case of COc1ccc(NC(=O)NN2CCN(C)CC2)cc1, the “hERG current change (%, negative = inhibition) at 10uM” value is reported as 21.7%.
For COCCOC(=O)C1=C(C)NC(=O)NC1c1ccc(Cl)cc1 (centres unmarked), the “hERG current change (%, negative = inhibition) at 10uM” value was -4.48%.
In the case of CCOc1ccc(C(=O)NCC(=O)OC(C)C(=O)NCc2ccco2)cc1OCC (centres unmarked), the “hERG current change (%, negative = inhibition) at 10uM” value is reported as -5.53%.
With O=C(COc1ccc(Cl)cc1)Nc1cc(S(=O)(=O)N2CCCCC2)ccc1N1CCCCC1 the “hERG current change (%, negative = inhibition) at 10uM” value was 14.6%.
For CCOC(=O)CCCn1ncn2c(cc3occc32)c1=O, the “hERG current change (%, negative = inhibition) at 10uM” value was -0.3%.
With O=C(Nc1c(C(=O)c2ccccc2)oc2ccccc12)c1cc(-c2ccccc2O)n[nH]1 the “hERG current change (%, negative = inhibition) at 10uM” value was 9.34%.
For O=C(Nc1cccc(N2C(=O)C3CCCCC3C2=O)c1)c1ccccc1 (centres unmarked), the “hERG current change (%, negative = inhibition) at 10uM” value was 11.1%.
For COc1ccc(CC(=O)OCC(=O)NC2CC2)cc1, the “hERG current change (%, negative = inhibition) at 10uM” value was 7.68%.
With Cc1n[nH]c(=O)n1-c1ccc(C(C)C)cc1 the “hERG current change (%, negative = inhibition) at 10uM” value was 18.4%.
For Cc1sc2ncn(CC(=O)NCC(=O)N3CCN(c4ccccc4F)CC3)c(=O)c2c1C, the “hERG current change (%, negative = inhibition) at 10uM” value was -24.4%.
In the case of COc1ccc(-c2nnc(SCCC(=O)O)n2C)cc1OC, the “hERG current change (%, negative = inhibition) at 10uM” value is reported as -6.37%.
With CCN(CC(=O)Nc1cc(Cl)ccc1C)C(=O)c1ccc(=O)n(Cc2ccccc2)n1 the “hERG current change (%, negative = inhibition) at 10uM” value was -9.4%.
O=C1C2C3C=CC(C3)C2C(=O)N1CCN1CCN(Cc2ccc([N+](=O)[O-])cc2)CC1 (centres unmarked) was tested, and the “hERG current change (%, negative = inhibition) at 10uM” value was -40.7%.
For CC(=O)Nc1ccc(OCC=C(Cl)Cl)cc1, the “hERG current change (%, negative = inhibition) at 10uM” value was -9.09%.
With Cc1ccc(Sc2cnc3ccccc3n2)cc1 the “hERG current change (%, negative = inhibition) at 10uM” value was -5.81%.
With Clc1cccc(-c2nc(NCCCN3CCOCC3)c3ccccc3n2)c1 the “hERG current change (%, negative = inhibition) at 10uM” value was -10.1%.
CCn1cc(/C=c2/sc3n(c2=O)C2c4ccccc4OC(C)(N=3)C2C(=O)OC)c(C)n1 (centres unmarked) was tested, and the “hERG current change (%, negative = inhibition) at 10uM” value was -24.1%.
With CC1CCCN(C(=O)COC(=O)c2cc(-c3cccs3)nn2-c2ccccc2)C1 (centres unmarked) the “hERG current change (%, negative = inhibition) at 10uM” value was -28.9%.
For CN(CC(=O)Oc1ccc(-c2nnco2)cc1)S(=O)(=O)c1ccc(F)cc1, the “hERG current change (%, negative = inhibition) at 10uM” value was -18.6%.
For COc1ccc(OC)c(NC(=O)CN2CCN(C(=O)c3ccco3)CC2)c1, the “hERG current change (%, negative = inhibition) at 10uM” value was -23.7%.
N#CC1(NC(=O)COC(=O)c2cc(O)c3ccccc3c2O)CCCCC1 was tested, and the “hERG current change (%, negative = inhibition) at 10uM” value was -7.56%.
C=CCc1cc(/C=C2/NC(=O)NC2=O)cc(OCC)c1O was tested, and the “hERG current change (%, negative = inhibition) at 10uM” value was 20%.
In the case of O=C(NCc1cn(-c2ccccc2)nc1-c1ccccc1)c1ccc([N+](=O)[O-])cc1, the “hERG current change (%, negative = inhibition) at 10uM” value is reported as -7.07%.
COc1ccccc1CNC(=O)CS(=O)(=O)c1ccc(C)cc1 was tested, and the “hERG current change (%, negative = inhibition) at 10uM” value was -6.74%.
O=C(CCNC(=O)c1ccc([N+](=O)[O-])cc1)Nc1ccc(S(=O)(=O)N2CCOCC2)cc1 was tested, and the “hERG current change (%, negative = inhibition) at 10uM” value was 2.67%.
With CCCN1C(=O)/C(=C/c2ccc(C)o2)SC1=Nc1ccc(OC)cc1 the “hERG current change (%, negative = inhibition) at 10uM” value was -2.66%.
In the case of O=C(COc1nsnc1N1CCOCC1)Nc1ccc([N+](=O)[O-])cc1, the “hERG current change (%, negative = inhibition) at 10uM” value is reported as 0.317%.
For CCOC(=O)c1ccc(/C=C2/C=C(c3ccccc3)N(c3ccc(Cl)c(C(=O)O)c3)C2=O)cc1, the “hERG current change (%, negative = inhibition) at 10uM” value was 8.41%.
